Source: the supplement of paper PMC12355420
Where a name gives a salt, the structure may show the parent alone. This is one part of the list. Most values come without repeats; read them as rough.

System: HeLa VPS33A reporter cells
Test: relative cell viability (CellMask signal) vs DMSO (fraction of DMSO); HeLa model of a glycosaminoglycan (GAG) storage disease; KI is knock-in and KO knock-out; SDC1 is syndecan 1; higher = less cytotoxic
Conditions: 50 µM; 24 h
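Also: primary screen of an FDA-approved drug library in HeLa reporter cells in 96-well format, CellMask signal normalized to DMSO-treated wells set as 1, under 0.5 deemed highly cytotoxic.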

Compound | relative cell viability
O=C(O)c1ccc2c(c1)nc(Nc1cccc(Cl)c1)c1ccncc12 [CX-4945 (Silmitasertib)] | 0.355
CCC1=C[C@@H]2CN(C1)Cc1c([nH]c3ccccc13)[C@@](C(=O)OC)(c1cc3c(cc1OC)N(C)[C@H]1[C@@](O)(C(=O)OC)[C@H](OC(C)=O)[C@]4(CC)C=CCN5CC[C@]31[C@@H]54)C2 [Vinorelbine ditartrate] | 0.00699
CN1CCN(c2ccc3nc(-c4c(N)c5c(F)cccc5[nH]c4=O)[nH]c3c2)CC1 [Dovitinib Dilactic acid] | 0.00657
C=C(CC)C(=O)c1ccc(OCC(=O)O)c(Cl)c1Cl [Ethacrynic Acid] | 0.01
COc1cc(/C=C/C(=O)CC(=O)/C=C/c2ccc(O)c(OC)c2)ccc1O [Curcumin] | 0.0044
CN1CCN(CCCN2c3ccccc3Sc3ccc(Cl)cc32)CC1 [Prochlorperazine] | 0.00459
Cc1cncc(CN2CCC(=C3c4ccc(Cl)cc4CCc4cccnc43)CC2)c1 [Rupatadine Fumarate] | 0.0135
Cc1c(-c2ccccc2)oc2c(C(=O)OCCN3CCCCC3)cccc2c1=O [Flavoxate hydrochloride] | 0.068
CCc1cc2c(cc1CC)CC(NC[C@H](O)c1ccc(O)c3[nH]c(=O)ccc13)C2 [Indacaterol Maleate] | 0.00575
CCc1c(Cl)c(O)c(Cl)c(O)c1C(=O)O[C@H]1[C@H](O)[C@H](OC)[C@H](OC/C2=C\C=C\C[C@H](O)/C(C)=C/[C@H](CC)[C@@H](O[C@@H]3OC(C)(C)[C@@H](OC(=O)C(C)C)[C@H](O)[C@@H]3O)/C(C)=C/C(C)=C/C[C@@H]([C@@H](C)O)OC2=O)O[C@@H]1C [Fidaxomicin] | 0.00887
